# Screen size: about 230,000 compounds; about 3,600 (1.6%) were called active. The shares of active, inactive and inconclusive entries below differ from those in the screen. Calls come from the whole dose curve; as a rule, active = well fitted inhibition curve with a large enough effect (not every such curve was filed as active); inconclusive = small, poorly fitted or top-dose-only effect, or another doubt; inactive = no such curve, though single readings can be large or run the other way. Where the call is inconclusive, the potency comes from a doubtful curve fit.
# Molecular target: Lysine-specific demethylase 4E (Homo sapiens) (UniProt B2RXH2)
# Experiment: qHTS Assay for Inhibitors of Human Jumonji Domain Containing 2E (JMJD2E)
# Conditions: JMJD2E catalytic domain, FDH-coupled NADH fluorescence (FDH is formaldehyde dehydrogenase); series mostly up to 57.1 µM; activity change, negative = inhibition: at the top concentration
# Note: nearly all actives have a fitted effect of over 50% in size.
# Potency is the fitted concentration of half-maximal effect; tags give direction and shape of the fitted curve.
# 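Throughout, for activity change, negative = inhibition: 0% = wells with enzyme and -100% = buffer wells without enzyme.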
# UniProt B2RXH2, sequence (B2RXH2 whole entry, looked up, the tested form may be a part): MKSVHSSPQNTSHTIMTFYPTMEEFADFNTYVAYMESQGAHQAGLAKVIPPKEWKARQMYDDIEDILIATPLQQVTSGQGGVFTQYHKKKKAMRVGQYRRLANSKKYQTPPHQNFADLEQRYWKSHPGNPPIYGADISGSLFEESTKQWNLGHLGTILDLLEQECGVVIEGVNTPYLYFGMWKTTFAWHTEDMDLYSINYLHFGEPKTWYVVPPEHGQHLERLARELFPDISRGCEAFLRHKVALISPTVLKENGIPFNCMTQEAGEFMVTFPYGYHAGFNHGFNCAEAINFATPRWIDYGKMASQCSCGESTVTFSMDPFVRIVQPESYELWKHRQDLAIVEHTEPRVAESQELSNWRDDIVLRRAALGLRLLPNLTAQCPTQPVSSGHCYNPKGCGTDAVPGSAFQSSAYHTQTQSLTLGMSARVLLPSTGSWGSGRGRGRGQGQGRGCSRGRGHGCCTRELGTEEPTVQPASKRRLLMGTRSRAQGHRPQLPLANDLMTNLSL
SMILES,Potency,"activity change, negative = inhibition"
CCN(CC#CCC(O)(c1ccccc1)c1ccccc1)C(C)C,"inconclusive: 39.8 µM [inhibitor, single point]",
C[C@@H]1CC=C[C@H]2[C@H]1C(=O)N(Cc1ccccc1)[C@H]2c1ccc(-c2cc3ccccc3s2)cc1F,"inconclusive: 39.8 µM [inhibitor, single point]",
Cc1ccc(CSc2nnc(-c3ccc(NS(=O)(=O)c4ccccc4)cc3)o2)cc1,,inactive: 2.76%
COc1cc(OC)c(OC)cc1CN1CCN(Cc2cccn2C)CC1,"inconclusive: 0.794 µM [inhibitor, full curve]",
CCOc1ccccc1C(=O)N(Cc1ccco1)C1CCS(=O)(=O)C1 (stereo not drawn),,inactive: 5.8%
Cc1ccc2nc(N3C(=O)C(O)=C(C(=O)c4ccco4)C3c3cccs3)sc2c1 (stereo not drawn),"inconclusive: 39.8 µM [inhibitor, single point]",
CCOC(=O)N1CCN(C(=O)CSc2ccc(Cl)cc2)CC1,,inactive: -1.41%
O=C(O)CCc1nc2cc(Cl)ccc2n(Cc2ccccc2)c1=O,"inconclusive: 28.2 µM [inhibitor, partial curve]",
COc1ccc2c(CC(=O)NC3CCCc4ccccc43)coc2c1 (stereo not drawn),,inactive: -20.2%
COc1ccc(NC(=O)c2ccc(-c3ccccc3)cc2)cc1NS(=O)(=O)c1ccc(F)cc1,"inconclusive: 35.5 µM [inhibitor, single point]",
CCOC(=O)c1c(NC(=O)Nc2cccc(Cl)c2)sc(C)c1C,"inconclusive: 35.5 µM [inhibitor, partial curve]",
Cc1cc(NC(=O)CN2CCOCC2)n(-c2nc3ccccc3s2)n1,,inactive: -2.2%
Cc1ccc(N(CCCCN2C(=O)c3ccccc3C2=O)C(=O)c2cccc([N+](=O)[O-])c2)cc1,,inactive: -1.9%
CC(C)C(=O)Nc1ccc(C(=O)Nc2ccc(Br)cc2F)cc1,"inconclusive: 39.8 µM [inhibitor, single point]",
CC(C)C(=O)Nc1cc(S(=O)(=O)Nc2ccc(Cl)cc2)ccc1Cl,,inactive: 6.86%
COc1ccccc1-n1c(SCC(=O)NC2CCS(=O)(=O)C2)nc2cc([N+](=O)[O-])ccc21 (stereo not drawn),,inactive: -2.66%
CC(C)CCNC(=O)c1cc(-c2ccco2)nc2ccccc12,"inconclusive: 25.1 µM [inhibitor, partial curve]",
Cc1cccnc1NCc1ccc(O)c2ncccc12,active: 17.8 µM,
O=C(NNC1CC(=O)N(c2ccc(Cl)cc2)C1=O)c1ccco1 (stereo not drawn),,inactive: 1.11%
COCCn1c(-c2cccs2)nc2nc3ccccc3nc21,"inconclusive: 28.2 µM [inhibitor, partial curve]",
CC1CC(C)CN(C(=O)CNC(=O)Cn2ccc3ccccc3c2=O)C1 (stereo not drawn),"inconclusive: 12.6 µM [inhibitor, partial curve]",
Cc1cc(O)c(-c2ccno2)cc1Cl,"inconclusive: 17.8 µM [inhibitor, partial curve]",
C[C@H](NC(N)=O)C(=O)Nc1ccc2c(c1)OCO2,,inactive: -18.4%
CCOC(=O)c1c(N)sc(C(O)(C(F)(F)F)C(F)(F)F)c1-c1ccc(Cl)cc1,,inactive: -2.18%
COc1ccc(OC)c(/C=N/NC(=O)CC(=O)NCc2ccccc2)c1,"inconclusive: 31.6 µM [inhibitor, partial curve]",

SMILES,Potency,"activity change, negative = inhibition"
O=C(c1cccnc1)N1CCN(c2ccc3ccccc3n2)CC1,"inconclusive: 35.5 µM [inhibitor, partial curve]",
CCOC(=O)C1CCCN(Cc2cc(Br)ccc2OC)C1 (stereo not drawn),"inconclusive: 35.5 µM [inhibitor, single point]",
Cc1[nH]c(=O)[nH]c(=O)c1/C=N/NC(=O)[C@@H](NC(=O)OC(C)(C)C)C(C)C,,inactive: -6.77%
COc1ccc(/C(C)=N/Nc2ccc(F)cc2F)c(O)c1,"inconclusive: 39.8 µM [inhibitor, single point]",
CCOc1ccc(-n2nc3ccc(NC(=O)c4ccc5c(c4)OCCO5)cc3n2)cc1,"inconclusive: 28.2 µM [inhibitor, partial curve]",
COc1cc(/C=C(\C#N)c2nc3ccccc3[nH]2)cc(OC)c1O,,inactive: 9.03%
c1ccc(-c2noc(-c3cccc4ccccc34)n2)cc1,"inconclusive: 31.6 µM [inhibitor, partial curve]",
COc1cccc(/C=C2\SC(=O)N(CCC(=O)NNC(=O)c3ccccc3Cl)C2=O)c1,"inconclusive: 31.6 µM [inhibitor, partial curve]",
CCCn1c(=O)c2ccccc2n2c(SCC(=O)c3cc(C)n(CC4CCCO4)c3C)nnc12 (stereo not drawn),"inconclusive: 35.5 µM [inhibitor, single point]",
Nc1ccc(-c2nc3ccc(-c4nc5ccccc5o4)cc3[nH]2)cc1,"inconclusive: 3.55 µM [inhibitor, partial curve]",
O=C(COC(=O)c1ccc(Br)o1)Nc1nc2c(F)c(F)c(F)cc2s1,,inactive: 7.08%
COc1cc(-c2cc(C(=O)NCCc3ccc(S(N)(=O)=O)cc3)c3ccccc3n2)cc(OC)c1OC,"inconclusive: 39.8 µM [inhibitor, single point]",
Cc1ccccc1NC(=O)Cn1nnc2c(cnn2-c2ccc(F)cc2)c1=O,"inconclusive: 39.8 µM [inhibitor, single point]",
CN(C)c1ccc(/C=N/NC(=O)c2ccc3nc[nH]c3c2)cc1,"inconclusive: 39.8 µM [inhibitor, single point]",
COC(=O)c1ccccc1NC(=O)NC1CCN(Cc2ccccc2)CC1,"inconclusive: 31.6 µM [inhibitor, single point]",
NCc1ccccc1COc1ccccc1,"inconclusive: 39.8 µM [inhibitor, single point]",
COc1cccc(/C=N/NC(=O)Cn2nc(C)c([N+](=O)[O-])c2C)c1O,active: 11.2 µM,
COc1ccc(NC(=O)c2ccc3c(c2)OCO3)cc1Cl,"inconclusive: 35.5 µM [inhibitor, single point]",
COC(=O)Cn1cc(/C=N/NC(=O)COc2cccc3cccnc23)c2ccccc21,"inconclusive: 39.8 µM [inhibitor, single point]",
CCOc1cc(NS(=O)(=O)c2ccc(OC)cc2)c(OCC)cc1NC(=O)c1ccco1,"inconclusive: 39.8 µM [inhibitor, single point]",
O=C1OC(NC(=O)c2ccccc2)C(n2cc(CO)nn2)=C1Cl (stereo not drawn),,inactive: -13.3%
CCOC(=O)C1=C(C)NC2=C(C(=O)CC(C)(C)C2)C1c1ccc(N(C)C)cc1 (stereo not drawn),"inconclusive: 39.8 µM [inhibitor, single point]",
CC(C)OCCCNC1=C(Cl)C(=O)c2ccccc2C1=O,,inactive: -12.1%
NS(=O)(=O)c1ccc(CCNC(=O)CSc2nc3ccccc3c3nc(CCN4CCCCC4)nn23)cc1,,inactive: 2.31%
O=C(CSc1ccc(-c2ccccn2)nn1)N1CCCC1,,inactive: 0.254%

SMILES,Potency,"activity change, negative = inhibition"
CCOC(=O)c1cc2c(=O)n3ccccc3nc2n(Cc2ccco2)c1=NC(=O)c1cccc(OC)c1,"inconclusive: 2.82 µM [inhibitor, partial curve]",
NC(=O)c1cc2cc(Cc3ccccc3Cl)ccc2oc1=O,"inconclusive: 35.5 µM [inhibitor, single point]",
O=[N+]([O-])c1cc(S(=O)(=O)N2CCCCCC2)ccc1Cl,,inactive: 5.38%
C/C=C/c1ccc2oc(-c3ccc(O)cc3)c(C)c2c1,"inconclusive: 28.2 µM [inhibitor, partial curve]",
CCOC(=O)CSc1nc2c(c(=O)[nH]c(=O)n2C)n1CCc1ccccc1,,inactive: -0.103%
COc1cc2ccccc2cc1C(=O)Nc1ccc(Cc2ccncc2)cc1,"inconclusive: 35.5 µM [inhibitor, single point]",
c1ccc(Nc2nn[nH]n2)cc1,,inactive: 0.394%
COC(=O)c1ccccc1NC(=O)c1cc2sccc2n1C,"inconclusive: 22.4 µM [inhibitor, partial curve]",
COc1ccc(CCn2c(NN=C(C)C)nc3c2c(=O)[nH]c(=O)n3C)cc1,"inconclusive: 28.2 µM [inhibitor, partial curve]",
O=C(O)CNC(=O)[C@@H](CS)Cc1ccccc1,,inactive: -2.62% [at 25.5 µM]
O=C(NCc1ccc(Cl)cc1)C(=O)Nc1nccs1,"inconclusive: 7.08 µM [inhibitor, single point]",
CN(C)c1ccc(N2CN=C3SCC(=O)N3C2)cc1,"inconclusive: 3.55 µM [inhibitor, single point]",
Cc1cccn2c(=O)c3cc(S(=O)(=O)c4ccc(F)cc4)c(=N)n(Cc4ccco4)c3nc12,"inconclusive: 35.5 µM [inhibitor, single point]",
Cc1nnc(SCC(=O)NCc2ccc3c(c2)OCO3)n1C,,inactive: 8.31%
COc1ccc(C(=O)CSc2ccc(-c3ccco3)nn2)cc1,"inconclusive: 39.8 µM [inhibitor, single point]",
CC(C)CCN1CCN(Cc2cccc(C(F)(F)F)c2)CC1CCO (stereo not drawn),,inactive: 5.2%
O=C(Nc1nc2cc3c(cc2s1)OCCO3)c1ccc(N2C(=O)CCC2=O)cc1,"inconclusive: 23.8 µM [inhibitor, single point]",
CC1(C)CC(=O)C(C=Nc2ccc3c(c2)OCO3)=C(O)C1,"inconclusive: 39.8 µM [inhibitor, single point]",
CCCNC(=S)Nc1ccc2nc(-c3ccccn3)c(-c3ccccn3)nc2c1,"inconclusive: 31.6 µM [inhibitor, single point]",
COC(=O)c1ccc(CN2CCN(Cc3ccc(C(=O)OC)o3)CC2)o1,,inactive: 7.72%
Cc1ccc2cc(-c3noc(C4CCCO4)n3)c(=O)[nH]c2c1 (stereo not drawn),"inconclusive: 31.6 µM [inhibitor, partial curve]",
Cc1cc(C)cc(NS(=O)(=O)c2ccc3c(c2)c(=O)n(C)c(=O)n3C)c1,,inactive: -0.973%
CC1(C)SC2C(NC(=O)Cc3ccccc3)C(=O)N2C1C(=O)O (stereo not drawn),,inactive: -14.9%
